The list shows a part of the results.
These sequences were tested on T1, Caupolican (Caup) homeodomain DNA-binding domain (assay: PBM E-score (8-mer, recovered from the published 9-mer minima) (E-score (dimensionless, -0.5 to 0.5)); Drosophila protein; higher = stronger relative binding preference, active = 0.31 or more).
T1 sequence: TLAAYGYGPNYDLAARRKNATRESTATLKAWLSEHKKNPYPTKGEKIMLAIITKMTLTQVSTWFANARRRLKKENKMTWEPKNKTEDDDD
How it was run: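 Caup's homeodomain DNA-binding domain (residues 214-303) was produced by in vitro transcription and translation and applied at 100 nM to custom-designed protein binding microarrays. Each value is an enrichment score giving relative binding preference for a short DNA word; higher means stronger. Published 9-mer scores were the minimum of their two constituent 8-mer scores, and the 8-mer values were recovered from those minima. A cutoff of 0.31 marks candidate binding sequences.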

| Sequence | PBM E-score |
| --- | --- |
| ATTGGTAC | inactive: 0.172 |
| TACTCAAA | inactive: 0.0329 |
| CCGTGTTC | active: ≥ 0.382 |
| CCAGCCTA | inactive: -0.225 |
| ACCGATCA | ≥ 0.049 |
| ACTTTGCA | inactive: 0.0222 |
| AATTGTTA | inactive: 0.188 |
| CAATAAAC | inactive: 0.0372 |
| AACCCCGC | inactive: -0.188 |
| CAAAAACA | inactive: 0.206 |
| AATGCTCG | inactive: 0.0913 |
| ACCCAACT | inactive: -0.0182 |
| ACGATATC | inactive: 0.133 |
| GATTGAAC | inactive: 0.131 |
| CCCTTCCA | inactive: -0.158 |
| ACTGTTCC | inactive: 0.0346 |
| TAGATGCA | ≥ 0.0765 |
| ACATATCC | inactive: 0.264 |
| AAGTTAAT | inactive: 0.106 |
| AGCTTTGC | inactive: -0.178 |
| AAATTGTC | inactive: 0.106 |
| AAGTCCCG | inactive: -0.106 |
| ACGAGAAA | inactive: 0.0689 |
| TCTCGAAA | inactive: -0.0351 |

| Sequence | PBM E-score |
| --- | --- |
| GGTGGAAC | inactive: -0.00718 |
| CGGGCTAG | inactive: -0.19 |
| AACAGCGG | inactive: 0.00789 |
| ACGTTACA | inactive: 0.282 |
| TGCGGAAA | inactive: -0.035 |
| AGTCGCGG | inactive: -0.153 |
| CACTAGAG | inactive: -0.115 |
| CACAAAGC | inactive: 0.054 |
| AATAGAAA | inactive: 0.107 |
| CAATTGCA | inactive: 0.0985 |
| ACGGACGT | inactive: -0.0548 |
| GTCCGCAC | inactive: -0.0799 |
| AGGCGTAG | inactive: -0.21 |
| CCCGACCA | inactive: -0.0955 |
| CGCTCGGC | inactive: -0.246 |
| CAGTGGAG | inactive: -0.129 |
| CGGCTTCA | inactive: -0.102 |
| ATGTGCGC | inactive: -0.0217 |
| CACTTGCG | inactive: -0.118 |
| ACAAGCAG | inactive: 0.229 |
| CAGTGAGG | inactive: -0.192 |
| GGTTCGAA | inactive: -0.0268 |
| CCTCTCAA | inactive: -0.0881 |
| CCCCGCAA | inactive: -0.116 |

| Sequence | PBM E-score |
| --- | --- |
| CCACCTTC | inactive: -0.0586 |
| AAATCTCG | inactive: -0.0141 |
| TCAGGGGA | inactive: -0.0695 |
| CGGATTTC | inactive: -0.114 |
| CAGGAGTA | inactive: 0.0358 |
| GAACCCTA | inactive: -0.00413 |
| AGAGTTTC | inactive: -0.112 |
| TCTGTCCA | inactive: 0.12 |
| AGTCCCAT | inactive: 0.026 |
| CTTCATCC | inactive: -0.145 |
| CGGCCTTA | inactive: -0.103 |
| ACAAGTGC | inactive: 0.255 |
| CTCGAGCA | inactive: 0.0323 |
| AGAATCAT | ≥ 0.136 |
| ATTGGTAA | inactive: 0.0534 |
| GCGTGGCC | inactive: -0.262 |
| AGCGATGC | inactive: -0.112 |
| AAACCAGA | inactive: 0.123 |
| ACGGGGAA | inactive: -0.0432 |
| AACACCCT | inactive: 0.168 |
| ACAGATGA | inactive: 0.139 |
| ACGGAATG | inactive: 0.0231 |
| ACACCTAA | inactive: 0.165 |
